Results published in the supplement of paper PMC10338343.
± gives the standard deviation. This is a selection; strong and weak results do not stand in their true shares.

System: MIWI (PIWIL1) piRISC loaded with L1MC piRNA (30 nt)
Assay: pre-steady-state target cleavage rate (min^-1); MIWI and MILI are mouse PIWI proteins and EfPiwi is from a freshwater sponge; tags in brackets are library labels; higher = faster piRNA-guided slicing of the target
Settings: guide: L1MC piRNA 5'p-UAACUAAAUACUAUGCAAGCUGUAGGUCCU; auxiliary factor: 500 nM mouse GTSF1
In short: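 In this Cleave-'n-Seq assay, uncleaved targets were sequenced and normalised to depth and to weakly complementary targets. They came from a transcribed, DNA-blocked target RNA library […] mixed with 1 nM active affinity-purified piRISC carrying one synthetic guide, with or without 500 nM GTSF1 partner protein, in HEPES–potassium acetate buffer at 33 °C for 0–8 or 0–960 min. After three trials were pooled and k3 was capped at 0.0001 min^-1, the pre-steady-state cleavage rate was obtained from a burst-and-steady-state fit.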
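Further: 1 nM active piRISC with 0.1 nM target library at 33 °C single turnover.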

Sequence | pre-steady-state target cleavage rate
UCCACCUACAGCUACCAUAGUAUUUUCAAA | 0.012 ± 0.0064
UCCUGGAACAGCUUGCAUAGUAUAAUCAAA [g8:g23:cont:t1A] | 0.11 ± 0.024
UCCUGGAUGUCCUUGCAUAGUUUUUAGUAA | 0.00677 ± 0.0037
UGGACCUACAGCUUGCAUAGUAUAUACAAA | 0.177 ± 0.042
UCCUGGUAGAGCUUGCAUAGUAUUUACAAA | 0.0287 ± 0.0094
UCCUGGAUGUCGAACGAUAGUAUUUAGUUU [g2:g14:cont:t1U] | < 0.0001
UCGACCUACAGCUUCCAUUGUAUUUAGUUA | 0.159 ± 0.019
UCCUGGUACAGCUUGCAUAGUAUUUAUUA | 0.0685 ± 0.026
UCCUGGAUGUCGAUGCAUAGUAUUUGAGUUA | 0.0114 ± 0.0044
UCCUGGAUCAGCUUGCUAUGUAUUUAGUAA | 0.00634 ± 0.0034
UCCACCUACAGCUUGGUUAGUAUUUUCAAA | 0.0329 ± 0.012
UCGACCUACAGGUUGCAUAGUAUUUUCAAA | 0.134 ± 0.021
UGGACCUAGUCCUUGCAUAGUAUUUACAAA | 0.0221 ± 0.0084
UCCACCUACAGCUUGCAUAGUAAUUACAAA | 0.323 ± 0.061
UCCUCCUACACGAUGCAUAGUAUUUAGUAA | 0.42 ± 0.034
UCCUGCUAGUGCUUGCAUAGUAUUUAGAAA | 0.0199 ± 0.0065
UCCUGGUACAGCUUGCUUAGUAUUUACAAA | 0.0951 ± 0.021
UCGACCUACAGCUACCAUAGUAUUUAGAAA | 0.11 ± 0.031
UCCUCCUACAGCUUGCAUAGUAUAAUGUAA | 0.16 ± 0.033

Sequence | pre-steady-state target cleavage rate
AGGACCUACAGCUUGCAUAGAUAUUACAAA | 0.188 ± 0.066
UCCUGGAACAGCUUGCAGUAGUAUUUAGUUA | 0.00503 ± 0.0043
UCCUCCUACACGUUGCAUAGUAUUUUCAAA | 0.188 ± 0.031
UCCACCUAGAGCUUCCAUAGUAUUUAGUUA | 0.0648 ± 0.021
UCCUGGAUGUGCUAGCAUAGUAUUUAGAUA | 0.0175 ± 0.0055
UCCUGGAUGUGCAUGCAUAGAAUUUAGUUA | 0.00471 ± 0.0043
UCCUGCUACAGCUUGCAUAGUAUUUGUUA | 0.247 ± 0.029
UCCUCCUACAGCUUGGUUAGUAUUUACAAA | 0.0571 ± 0.013
UCCUGCUACAGCUUGCAUACUAUUUUCAAA | 0.118 ± 0.026
AGGACCUACAGCUUGCAUAGGUAUUUAGUUA | 0.178 ± 0.065
UCCUGGAUGUCGAUGCACAGUAUUUAGUUA | 0.016 ± 0.0041
UCCUGCUACAGCAACCAUAGUAUUUAGUUA | 0.22 ± 0.032
UCCUGGAUGUCGAUGCAUAGUAUUUAAGUUA | 0.0127 ± 0.0046
UCCUCCUACAGCUUGCAUAGUUAUUAGAAA | 0.0862 ± 0.022
AGGACCUACAGCUUCGUUAGUAUUUAGUAA | 0.06 ± 0.012
UCCUGGAUCAGCUUGCAUUGUAUUUACAAA | 0.0335 ± 0.011
UGGACCUACAGCUUGCAGUAGUAUUUAGUUA | 0.00477 ± 0.0038
UGGACCUACAGGAAGCAUAGUAUUUACAAA | 0.104 ± 0.023

Same assay, conditions: guide: L1MC piRNA 5'p-UAACUAAAUACUAUGCAAGCUGUAGGUCCU; auxiliary factor: none (no GTSF1)

Sequence | pre-steady-state target cleavage rate
UGGACCUACAGCUUGCAAAGUAUUUAGUUA | 0.0474 ± 0.0097
AGGACCAACAGCUUGGAUAGUAUUUAGUUA | 0.0681 ± 0.01
UCCUGGAUGUCGAACCUAUAGUAUUUAGUUA | < 0.0001
